Results as given in ChEMBL document CHEMBL4888484, “Replenishing the malaria drug discovery pipeline: Screening and hit evaluation of the MMV Hit Generation Library 1 (HGL1) against asexual blood stage Plasmodium falciparum ,using a nano luciferase reporter read-out” (2022).
The whole screen tested about 150,000 compounds, of which about 540 (0.36%) showed an effect of 50% or more. This is one part of the list.

system: Plasmodium falciparum; experiment: Primary screen in NF54 nanoGlo assay, in single point, at 2uM, 72h; a lower Z score goes with more inhibition; assay type: functional, Erythrocyte; settings: timepoint 72 hour

Row | SMILES | % Inhibition [%] | Z score
1 | CCOC(=O)c1nc(NC(=O)Nc2cc[nH]n2)sc1C(F)(F)F | -5 | 0.86
2 | N#Cc1ccnc(OCC2CCNCC2)c1 | -13 | 1.44
3 | Cc1cc(C(=O)N2CCC3(CC2)NC(=O)NC3=O)c2ccccc2n1 | -6 | 0.48
4 | Cc1cc(C)nc(-c2cccc(C(=O)NCCCn3cccn3)c2)n1 | 5 | -0.78
5 | Cc1ccc(CNS(=O)(=O)c2cc3n(c2)CCN(C)C3=O)cc1 | -4 | 0.57
6 | COc1ccc(NS(=O)(=O)c2ccc(-c3ccno3)o2)cc1 | -5 | 0.89
7 | COCCC1(c2noc(C3CCOCC3)n2)CCN(CC2CCCCC2)CC1 | 6 | -0.8
8 | O=C(CC1CCCC1)Nc1ccc2[nH]c(=O)[nH]c2c1 | 12 | -1.07
9 | Cc1cccc(CN2CCC[C@@](CO)(CC3CC3)C2)n1 | 10 | -0.95
10 | CNC(=NC[C@@H](C)Cc1ccc(OC)c(OC)c1)NC | -6 | 0.6
11 | Cc1nc2c(N(CCO)Cc3ccccc3)ncnc2o1 | -3 | 0.69
12 | Cc1cc(NC(=O)NCc2ccc(CO)cc2)n(C2CCCCC2)n1 | -9 | 0.82
13 | CC1CC(C)CN(S(=O)(=O)c2ccc(C(=O)Nc3nc4cc5c(cc4s3)OCCO5)cc2)C1 (stereo unspecified) | -1 | 0.12
14 | Cc1ccc(-c2nnc3n2CCCC[C@H]3C2CCOCC2)s1 | -13 | 2.52
15 | COc1ccc(Nc2cc(NCc3nccc(C(F)F)n3)ncn2)c(OC)c1 | -13 | 2.46
16 | Cc1nc(N2CCOCC2)sc1CNC[C@H]1CN(C)CCO1 | 40 | -3.35
17 | COc1cc(Cl)ccc1C(=O)N1CCC2(CC[C@@H]2O)CC1 | -17 | 2.15
18 | Cc1nnc([C@H]2CCCN(Cc3cccc4ncccc34)C2)o1 | -1 | 0.11
19 | Cc1n[nH]c(C)c1CCN(C)C[C@H]1COCCO1 | -11 | 1.79
20 | COCCn1cnc2cc(NC(=O)C3CCCCC3)cc(C(=O)N(C[C@H]3CCC(=O)N3)C(C)C)c21 | -5 | 0.9
21 | O=c1[nH]c(NC2CCC2)nc2c1Cc1ccccc1OC2 | -13 | 1.43

Row | SMILES | % Inhibition [%] | Z score
22 | CCN(C)C(=O)CC1(Cc2nc3cccnc3n2CC(C)C)CCCC1 | -12 | 1.47
23 | CN(C)c1c(CN(C(=O)c2ccccc2F)C2CC2)c(C(F)(F)F)nn1-c1ccccc1 | -16 | 1.94
24 | O=C(c1cc(-c2cccc(F)c2)ns1)N1CCN(c2ccc(F)cc2)CC1 | -13 | 1.66
25 | Cc1cc(-n2cnnc2[C@H](C)n2cccn2)n(C)n1 | 10 | -1.35
26 | COc1ccc(F)c(F)c1C(=O)NC[C@H]1CCCN(C(=O)c2cccc(N)n2)C1 | -7 | 1.26
27 | O=C(NC1CCCN(CC(F)(F)F)C1)OCC1CCCO1 (stereo unspecified) | 5 | -0.6
28 | CN(Cc1ccco1)C(=O)CCc1ccc(-c2ccccc2)[nH]1 | -1 | 0.11
29 | COc1cccc(CN2CCc3cc(OC)c(OC)cc3C2C(C)NC(=O)c2ccc(C)cc2)c1 (stereo unspecified) | -12 | 1.47
30 | O=C(Nc1cccc(O)c1F)[C@H]1COCC(=O)N1Cc1ccccc1 | -5 | 0.81
31 | COCc1cn([C@H]2CCN(S(=O)(=O)c3cccc(C(F)(F)F)c3)C2)nn1 | -3 | 0.51
32 | NC(=O)c1ccccc1NC(=O)CN(C[C@H]1CCOC1)C1CC1 | 8 | -1.01
33 | c1ccc2c(c1)CCN(Cc1ncon1)C2 | -8 | 1.59
34 | COc1cc2c(cc1OC)CN(C(=O)c1ccc(N3CCOCC3)nc1)CC2 | 2 | -0.32
35 | CCC(O)(CNC(=O)C1CCc2[nH]nnc2C1)c1ccc(Cl)cc1 (stereo unspecified) | -1 | 0.24
36 | COc1ccccc1C(=O)NC[C@H]1Cn2cc(-c3ccc(C)cc3)nc2CO1 | -2 | 0.33
37 | O=C1CC[C@H](C(=O)NCc2nc(-c3cccc(F)c3)c(-c3ccccn3)[nH]2)N1 | -17 | 2.96
38 | O=C(CCN(CCCN1CCOCC1)c1nc(-c2ccco2)nc2ccccc12)Nc1ccc(F)cc1 | -18 | 2.54
39 | Cc1ccc(S(=O)(=O)N2CCN(C(=O)[C@@H]3CCCN3C(=O)OC(C)(C)C)CC2)cc1 | -10 | 1.28
40 | Nc1ncnc(N2C[C@@H](F)C[C@H]2CO)c1Cl | 8 | -1.1
41 | O=C(c1cncnc1)N1CC[C@H](c2nc3cc(F)ccc3[nH]2)C1 | 20 | -2.34
42 | COc1ccc2c(c1)C[C@@H](NC1CCN(C(=O)Nc3ccccc3)CC1)CC2 | -4 | 0.82

Row | SMILES | % Inhibition [%] | Z score
43 | COc1ccc(NC(=O)COc2c[nH]c(C)cc2=O)cc1N1CCCCS1(=O)=O | -3 | 0.42
44 | CNCC(=O)Nc1ccc(-c2ccc(C)c(C(F)(F)F)c2)cn1 | 4 | -0.36
45 | CCN(CC)c1ccc(NC(=O)c2cnn(-c3ccc(Br)cc3)c2)c(C)c1 | -10 | 1.66
46 | O=C(c1c[nH]nc1-c1ccccc1)N1Cc2cnn(CCO)c2C1 | -3 | 0.4
47 | Cn1nncc1C1(O)CN(C(=O)c2ccnn2CC(F)(F)F)C1 | 0 | 0.03
48 | COc1ccc2c(C)c(C(=O)N3C[C@H]4CC[C@@H](C3)[C@H]4N)oc2c1OC | 8 | -1.04
49 | Cc1ccc(NS(=O)(=O)c2c(C)sc(C)c2-c2cc(C)no2)cc1 | -19 | 3.21
50 | N#CC1(c2nc3ccccc3s2)CC1 | -1 | 0.16
51 | CCNC(=O)CN1C(=O)[C@@H]2CCCCN2c2ccc(C(=O)N3CCCCC3)cc21 | -8 | 1.24
52 | COCc1n[nH]c(-c2csc3c2CCCC3)n1 | -12 | 1.68
53 | CCc1cnc(C)nc1-c1cccc(C(=O)N(CC)Cc2nc(C)no2)c1 | -21 | 1.84
54 | COCCn1cc(Nc2ccccn2)cn1 | 11 | -1.92
55 | CC(C)N[C@H]1CCCN(C(=O)C(C)(C)Nc2ccccc2)C1 | -13 | 1.76
56 | O=c1c2c([nH]c3nc(NCc4ccccc4Cl)nn13)CCCC2 | -13 | 1.11
57 | Clc1cnccc1NCc1ccccc1CN1CCCCC1 | -7 | 0.92
58 | Cn1ncc(N2CCC[C@H](CC(=O)Nc3ccc(F)cc3F)C2)cc1=O | -1 | 0.11
59 | C[C@@H](Cc1noc(-c2ccc3c(c2)N=S=N3)n1)N(C)C(=O)OC(C)(C)C | -9 | 1.22
60 | CC(C)(C)OC(=O)NC1CCOC2(CCOC2)C1 (stereo unspecified) | -14 | 1.81
61 | CN(C)c1ccc2c(c1)CN(C(=O)[C@@H]1COc3ccccc3O1)CCO2 | 8 | -1.6
62 | Cn1nc(CNC(=O)Cc2cccs2)c2c1CCCC2 | -5 | 1.01
63 | CCn1nc(CO)c2c1CCN(C(=O)c1ccc3nccn3c1)C2 | -26 | 2.8

Row | SMILES | % Inhibition [%] | Z score
64 | COc1cc([C@H]2CC(=O)Nc3cccc4c3c2cn4Cc2ccccc2)ccc1OCCc1ccc2c(c1)CCO2 | 0 | 0.07
65 | Cc1ccc(Cn2c(=O)c(C(=O)NCC3CC3)nn(-c3ccc(Cl)cc3)c2=O)cc1 | -10 | 1.02
66 | O=C(NC1C2CCc3ccccc3C21)N1CCOC(Cn2cccn2)C1 (stereo unspecified) | -10 | 1.62
67 | CC(C)C(C)(C)CNC(=O)NCCn1cccn1 | 0 | -0.05
68 | Cc1nc(C)c(CNC(=O)Nc2ccc(C(C)(C)C#N)cc2)s1 | -7 | 0.8
69 | O=S(=O)(N1CCN(c2ccccc2)CC1)C(F)(F)c1nc2ccccc2s1 | 1 | -0.26
70 | Cc1nnc(C(=O)N2CC(C)(O)C2)s1 | 6 | -0.75
71 | O=C(c1cccc(F)c1)N1CCN(c2cnn3c(C4CC4)nnc3c2)CC1 | 28 | -3.2
72 | Cc1cnn(CC(=O)NCc2csc(N)n2)c1 | -12 | 2.3
73 | C[C@]1(C(F)(F)F)c2ccccc2CCN1C(=O)Cn1cnnn1 | -3 | 0.55
74 | Cc1ccc(CNC(=O)c2cccc(N3C(=O)[C@@H](C)CS3(=O)=O)c2)cc1 | -8 | 0.98
75 | CCOc1ccc(-c2cc3nc(C4CCN(C(=O)OC(C)(C)C)CC4)c(C(=O)Nc4ccc(OC(F)(F)F)cc4)cn3n2)cc1 | -10 | 1.63
76 | Cc1cc(C)cc(NC(=O)CC[C@@H]2NC(=O)N(CCc3c[nH]c4ccccc34)C2=O)c1 | -4 | 0.56
77 | NC(=O)c1ccccc1CC(=O)N1CCc2cc(-c3ccccc3)oc2C1 | -4 | 0.51
78 | COc1ccc(N2C[C@@H](c3nnc(NC(=O)c4ccco4)o3)CC2=O)cc1 | -8 | 1.26
79 | Cc1ccc(CNC(=O)[C@]2(C)Cn3nc(C)cc3C(=O)N2c2ccc3c(c2)OCCO3)cc1 | -1 | 0.18
80 | Cc1c(C(=O)N(C)c2ccccc2N(C)C)cnn1-c1ccncc1 | -6 | 0.65
81 | COC(=O)[C@H](NC(=O)Cn1cccn1)c1ccc2ccccc2c1 | -15 | 1.73
82 | C[C@H]1CNC(=O)CCN1Cc1c[nH]nc1-c1cccc(F)c1 | 2 | -0.37
83 | Cc1csc(Oc2ccc(N)cc2F)n1 | -12 | 1.47
